Laboratory results from paper PMC4336329 (PLoS ONE, 2015).
Out of some 310,000 compounds screened, about 14,000 (4.5%) showed an effect of 50% or more. The effect is printed as a negative number. The list shows a part of the results.

Target: human ether-à-go-go-related gene (hERG) potassium channel (human, UniProt Q12809)
Assay: primary screen, population patch clamp on CHO cells stably expressing hERG
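Note: peak tail current of the secondary pulse compared with the same well before compound.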

Sequence of human ether-à-go-go-related gene (hERG) potassium channel (Q12809 whole entry, looked up): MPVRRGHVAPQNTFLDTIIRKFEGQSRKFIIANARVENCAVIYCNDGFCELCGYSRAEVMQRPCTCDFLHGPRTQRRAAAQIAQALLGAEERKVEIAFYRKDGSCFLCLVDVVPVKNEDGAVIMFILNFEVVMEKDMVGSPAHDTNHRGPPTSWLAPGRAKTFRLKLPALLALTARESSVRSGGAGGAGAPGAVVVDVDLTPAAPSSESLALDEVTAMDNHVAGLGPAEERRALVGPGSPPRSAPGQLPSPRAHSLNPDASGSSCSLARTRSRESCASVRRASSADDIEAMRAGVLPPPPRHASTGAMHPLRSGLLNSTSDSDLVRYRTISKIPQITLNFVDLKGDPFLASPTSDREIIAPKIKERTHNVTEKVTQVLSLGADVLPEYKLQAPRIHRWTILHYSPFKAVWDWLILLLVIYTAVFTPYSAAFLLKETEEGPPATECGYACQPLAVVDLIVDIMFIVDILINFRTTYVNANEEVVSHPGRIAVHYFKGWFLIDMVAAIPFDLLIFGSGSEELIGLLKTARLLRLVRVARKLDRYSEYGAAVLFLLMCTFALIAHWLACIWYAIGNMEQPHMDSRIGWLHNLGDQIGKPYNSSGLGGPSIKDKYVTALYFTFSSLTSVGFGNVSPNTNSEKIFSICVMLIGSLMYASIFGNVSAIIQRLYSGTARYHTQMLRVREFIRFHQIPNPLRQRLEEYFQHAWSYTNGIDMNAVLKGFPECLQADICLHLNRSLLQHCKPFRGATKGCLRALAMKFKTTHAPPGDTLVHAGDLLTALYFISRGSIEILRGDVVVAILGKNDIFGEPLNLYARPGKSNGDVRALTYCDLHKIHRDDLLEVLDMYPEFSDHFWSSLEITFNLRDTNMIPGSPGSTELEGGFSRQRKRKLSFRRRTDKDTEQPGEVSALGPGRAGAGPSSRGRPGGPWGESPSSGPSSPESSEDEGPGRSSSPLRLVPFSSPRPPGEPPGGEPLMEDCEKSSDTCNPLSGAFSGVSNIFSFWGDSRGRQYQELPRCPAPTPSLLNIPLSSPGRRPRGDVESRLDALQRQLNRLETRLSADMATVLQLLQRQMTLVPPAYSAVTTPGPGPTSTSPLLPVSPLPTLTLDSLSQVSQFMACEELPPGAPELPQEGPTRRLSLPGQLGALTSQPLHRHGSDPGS

Row | SMILES | hERG current change (%, negative = inhibition) at 10uM [%]
1 | COc1ccc(C(=O)N2CCCCCC2)cc1S(=O)(=O)N1CCOCC1 | 12.7
2 | CN(C)c1cccc(C(=O)N/N=C/c2ccccc2F)c1 | 19.2
3 | CCc1cc(-c2[nH]ncc2-c2ccc3c(c2)OCO3)c(O)cc1O | -9.25
4 | CS(=O)(=O)c1nc(S(=O)(=O)c2ccc(Cl)cc2)c(N2CCC(C(N)=O)CC2)s1 | -61.8
5 | COc1ccc(Nc2nc(C)cc(C)c2C(N)=O)c(OC)c1 | -1.14
6 | O=c1c2[nH]c3ccccc3c2ncn1CCCn1ccnc1 | -41.8
7 | Cc1c(NC(=O)c2ccc(CN3CCc4ccccc4C3)cc2)c(=O)n(-c2ccccc2)n1C | 0.767
8 | O=Cc1c(C(=O)O)n(CC(=O)O)c2ccccc12 | 7.72
9 | CC(C)=CCC(C)(C)CNC(=O)NC1CCCCC1 | -7.09
10 | Cc1cc(C)c2c(CC(=O)NCc3ccco3)coc2c1 | -13.5
11 | O=C(O)c1cc([N+](=O)[O-])ccc1N1CCC(Cc2ccccc2)CC1 | -4.42
12 | CC(=O)c1ccc(OCCOc2ccc([N+](=O)[O-])cc2)cc1 | -57.6
13 | O=C(Nc1ccc2c(c1)CCC2)Nc1ccccc1F | -61.6
14 | O=C(NCCO)Nc1ccc2nsnc2c1 | -5.93
15 | COc1ccc(C2=NOC(COc3ccc([N+](=O)[O-])cc3)C2)cc1 (stereo not drawn) | -12.9
16 | O=[N+]([O-])c1cc(S(=O)(=O)c2ccc(N3CCCCC3)c([N+](=O)[O-])c2)ccc1N1CCCCC1 | 1.26
17 | CCCC(=O)NC(c1ccccc1Cl)c1ccc2cccnc2c1O (stereo not drawn) | 10.1
18 | Nc1nc(SCC(=O)NCCO)nc2sc3c(c12)CCCC3 | -21.7
19 | CCN(CC)S(=O)(=O)c1ccc2c(c1)nc(SCC(N)=O)n2-c1ccc(OC)cc1 | -77.7
20 | O=C(Nc1ccc(NC(=O)c2ccc(S(=O)(=O)c3ccccc3)cc2)cc1)c1ccccc1 | 12.7
21 | CCNC(=S)NNC(=O)c1cccn(Cc2ccc(Cl)cc2Cl)c1=O | -25.1
22 | CCC(=O)NC(Nc1nc(C)cs1)(C(=O)OC)C(F)(F)F (stereo not drawn) | 6.69
23 | Cc1ccc(Cn2c(=N)c(C(=O)NC3CCCCC3)cc3c(=O)n4ccccc4nc32)cc1 | -65.7
24 | CC(=O)N1CCN(C2=NC(=O)/C(=C\c3cccs3)S2)CC1 | -37.1
